Assay results reported in the supplement of paper PMC3334620.
The full ranking holds about 33,000 sequences; the median of “E-score (-0.5 to 0.5)” is about -0.021, and the highest 2% start at about 0.32. The list shows a part of the results.

target: T1, Zap1 (UniProt P47043); experiment: PBM E-score (8-mer binding enrichment) (E-score (-0.5 to 0.5)); higher = stronger / more preferred TF binding; most listed sequences are background and not binding sites; conditions: protein concentration: 200 nM; construct: GST-full length
T1 sequence: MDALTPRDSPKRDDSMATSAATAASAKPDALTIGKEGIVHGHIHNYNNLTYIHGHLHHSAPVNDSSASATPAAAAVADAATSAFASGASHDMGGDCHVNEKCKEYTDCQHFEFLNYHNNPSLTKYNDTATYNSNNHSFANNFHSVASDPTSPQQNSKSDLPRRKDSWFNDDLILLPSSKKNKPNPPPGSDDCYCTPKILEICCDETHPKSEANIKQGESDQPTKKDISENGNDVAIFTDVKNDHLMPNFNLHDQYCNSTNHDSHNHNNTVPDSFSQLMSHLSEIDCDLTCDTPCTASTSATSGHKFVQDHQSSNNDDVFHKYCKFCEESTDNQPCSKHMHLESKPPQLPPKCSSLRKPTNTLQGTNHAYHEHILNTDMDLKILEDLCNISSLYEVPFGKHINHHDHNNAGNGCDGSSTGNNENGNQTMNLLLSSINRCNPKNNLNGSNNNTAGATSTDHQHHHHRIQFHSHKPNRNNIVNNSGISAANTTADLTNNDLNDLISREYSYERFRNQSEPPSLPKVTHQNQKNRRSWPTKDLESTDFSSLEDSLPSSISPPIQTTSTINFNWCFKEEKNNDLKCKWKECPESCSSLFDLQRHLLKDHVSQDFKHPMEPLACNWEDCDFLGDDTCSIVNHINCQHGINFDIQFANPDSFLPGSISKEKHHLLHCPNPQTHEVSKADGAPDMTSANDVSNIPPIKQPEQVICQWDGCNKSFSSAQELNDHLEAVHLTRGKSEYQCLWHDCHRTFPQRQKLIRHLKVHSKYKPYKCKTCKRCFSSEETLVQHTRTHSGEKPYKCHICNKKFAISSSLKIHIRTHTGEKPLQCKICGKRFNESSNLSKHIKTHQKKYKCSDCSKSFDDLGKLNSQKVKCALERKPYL
Outline: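 Using PURExpress in vitro transcription/translation, GST-tagged yeast transcription factors were made in full-length or DNA-binding-domain form. These were applied at about 100-200 nM to double-stranded universal all-10-mer Agilent arrays, and bound protein was detected with fluorescent anti-GST. Scans were normalised with masliner before the Universal PBM Analysis Suite assigned E-scores to ungapped eight-base words pooled with their reverse complements.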

| Sequence | PBM E-score |
| --- | --- |
| AGCCATGC | -0.369 |
| AGATGGGG | -0.214 |
| AACTTAGA | 0.01 |
| GGATCCTA | -0.142 |
| AGCTTTAT | -0.0486 |
| ATTTCCAA | 0.0256 |
| AAATAGCA | -0.171 |
| GACATTGA | -0.0123 |
| CCATCCAG | -0.155 |
| CTCGCGGA | -0.149 |
| AGCTCACA | -0.165 |
| CACTAGAC | -0.156 |
| ATAGTGCA | -0.0523 |
| ACTGCTAA | -0.137 |
| CCAACCGA | 0.0326 |
| AGGCCCCA | -0.0487 |
| GATGCAGA | -0.0572 |
| CTAACGAG | -0.0614 |
| CCTGAACG | -0.00311 |
| ACACACAA | 0.182 |
| CGAGCGCC | -0.202 |
| CCGGTTCG | -0.00578 |

| Sequence | PBM E-score |
| --- | --- |
| AGCTGAGG | -0.138 |
| CGAGGACC | -0.0258 |
| ACCCCTAA | 0.278 |
| ACAAAGGT | 0.352 |
| ACAAACGT | -0.0419 |
| CACTGCAA | -0.123 |
| ACGTCGCT | -0.238 |
| CCATAAGG | 0.282 |
| AATCGGCG | -0.186 |
| TAAGGTCA | 0.341 |
| CGCCCGGA | -0.105 |
| GGTTCCAC | 0.218 |
| ACGGCCCA | -0.047 |
| ATTGGGCA | -0.0745 |
| AGTTTCCG | 0.0649 |
| CAGTCTAG | -0.321 |
| CTAGGTCA | 0.117 |
| ATCGCTGG | -0.145 |
| ATCATCTC | -0.073 |
| TGAATCAA | 0.0938 |
| ACGTAGAA | 0.0762 |
| GTTCAACA | -0.0577 |

| Sequence | PBM E-score |
| --- | --- |
| AAACACCA | 0.107 |
| AAAGTCTA | 0.0717 |
| ATTCCACA | 0.0774 |
| ACTGACGC | -0.187 |
| GAGAACAA | 0.0974 |
| CCCATCAA | 0.137 |
| TGCTGCCA | -0.191 |
| CACCTTCC | 0.0289 |
| GTATAGGA | -0.215 |
| GCCCCAGC | 0.00901 |
| AAGTTCCC | -0.131 |
| AGGACTTG | -0.105 |
| GCGAAGGA | -0.165 |
| AAATTAAG | 0.0441 |
| CCATGCGG | 0.0435 |
| CTATAACC | 0.446 |
| AGTTATTA | 0.106 |
| CTTCCTGC | -0.31 |
| CAGTGCTA | -0.207 |
| GTCATGCA | -0.0612 |
| CCCCCACG | -0.21 |
| ACATCGGA | 0.0121 |

| Sequence | PBM E-score |
| --- | --- |
| AGCCTGTG | -0.29 |
| ATCTCTAC | 0.114 |
| CACTGCCG | -0.107 |
| GACTTTAA | 0.0488 |
| ACCTTGTG | 0.281 |
| ATAACAAA | 0.242 |
| AGACAGGG | -0.153 |
| ACAACTTA | 0.00522 |
| GTCCGTTA | 0.0812 |
| AAAATACA | 0.183 |
| CGAATAGC | -0.184 |
| CAGTCACC | -0.113 |
| GAAGGGCA | -0.219 |
| ACGGGTCT | -0.021 |
| AGGATTTC | -0.162 |
| AAGTAGCA | -0.0495 |
| CCTGTCAG | -0.0732 |
| ATGGAACC | 0.0628 |
| ACTGCGCC | -0.289 |
| CATAACGG | -0.0515 |
